Measured values taken from PubChem BioAssay AID1347041 (National Center for Advancing Translational Sciences (NCATS), 2019).
Out of some 480,000 compounds screened, about 740 (0.15%) were called active. Inconclusive means that the source gave no clear call. Such entries were picked first, then a sample of the others. Rule as the data show it: active = activity change below about -30%; inconclusive = mostly about -25% to -30%; inactive = weaker than that.

Each compound was assayed against L-lactate dehydrogenase A chain (Homo sapiens) (UniProt P00338) (assay: qHTS assay for inhibitors of human lactate dehydrogenase). Details: purified LDHA, NADH/diaphorase-resazurin fluorescence; stronger effect = lower value.
Procedure, shortened: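 Resorufin fluorescence (ex540/em590), read at 0 and 20 min after diaphorase/resazurin addition, reports the NADH left after a 5 min room-temperature reaction of 2 nM human LDH5 with 0.06 mM NADH and 0.2 mM pyruvate.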
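Also: values are at about 110 or 230 µM; plate controls were DMSO wells for no effect and wells without enzyme for full effect.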

Activity change, active:
CCC1CCCCN1C(=O)Cn1c(-c2ccccc2)nc(C)cc1=O (stereo not given) -33.4%
CC(C)c1cccc(C(C)C)c1NC(=O)C1CC=CCC1 (stereo not given) -31.8%
O/N=C(\c1ccc(O)cc1O)c1ccccc1F -31.3%
CCC(=O)Nc1cc(C)ccc1NC(=O)c1cccs1 -31.2%
CCC(=O)N1CCc2cc(S(=O)(=O)NC(CC(C)C)C(=O)NCc3cccc(OC)c3)ccc21 (stereo not given) -31.1%
COc1cccc(/C=N/NC(=O)c2[nH]nc3c2CCc2ccccc2-3)c1O -78.6%
Clc1ccc2c(Cl)cc[n+](CCC3CCCCC3)c2c1 -36.1%
CC(C)NCCCOc1ccc(C(C)(C)c2ccccc2)cc1 -31.7%
CCn1c2ccccc2c2cc(CN3CCN(S(=O)(=O)Cc4ccccc4)CC3)ccc21 -30.2%
N#C/C(=C\c1ccc(O)c(O)c1)C(=O)c1ccc(O)c(O)c1 -90%
CCCOc1ccc(-c2nc(C#N)c(NCCN(C)C)o2)cc1 -31.6%
Cc1ccc(C(=O)Nc2nc3nc(C)cc(=O)n3[nH]2)cc1 -70.4%
CCN1CCN(c2oc(-c3cccs3)nc2C#N)CC1 -31.2%
O=C(O)c1cc2c(ncc3c(=O)n(-c4ccccc4)[nH]c32)s1 -34.6%
O=C(N/N=C/c1ccc([N+](=O)[O-])o1)c1cc2ccccc2o1 -69.9%
CCCCn1nnnc1CSc1nnc(-c2ccccc2)n1-c1ccccc1 -31.1%
CCOc1ccccc1NC(=O)C(NCCN(C)C)c1ccccc1 (stereo not given) -41.1%
O=C(Nc1cc([N+](=O)[O-])ccc1O)c1cccc(C(=O)Nc2cc([N+](=O)[O-])ccc2O)c1 -35%
COc1ccccc1-c1ccc([C@@H]2C[C@H]3[C@H](CON3C)CN2C(=O)c2ccco2)cc1 -32.2%

Activity change, inconclusive:
O=C1N=c2ccccc2=C1c1sc(Nc2ccc(O)cc2)nc1O -26.7%
COc1ccc(CN2CCN(S(=O)(=O)c3ccc(C)cc3)CC2)cc1Br -30.3%
O=C(CCCCCCCC(=O)NNC(=O)Nc1ccccc1)NNC(=O)Nc1ccccc1 -27.2%
Cc1csc(NC(=O)CCNC(=O)c2ccoc2)n1 -29.8%
O=C(O)CCCCCN1C(=O)CC(c2ccccc2)CC1=O -28.8%
CCOc1ccc(NC(=O)c2cccc(Nc3ccnc(-c4ccc(F)cc4)n3)c2)cc1 -28%
Nc1cc([N+](=O)[O-])ccc1C(=O)O -26%
COc1cc(OC)c(OC)cc1CN(C)CCc1ccccn1 -26.7%
Cc1ccc(C)c(/C=C/c2ccc3cccc(O)c3n2)c1 -26.4%
O=C(CSc1nnc2c(n1)[nH]c1ccccc12)NC1CCCCC1 -27.5%
C=CCNCCCOc1ccc(C(C)(C)c2ccccc2)cc1 -29%
N#Cc1c(NC(=O)c2nn(-c3ccccc3)c(=O)c3ccccc23)sc2c1CCCC2 -29.9%
O=C(c1cccc(F)c1)N1CCN(Cc2ccc3c(c2)OCO3)CC1 -25.7%
Cc1cc(C)cc(N(C(=O)c2ccc3c(c2)OCO3)C2C=CS(=O)(=O)C2)c1 (stereo not given) -25.4%
CC(OC(=O)c1cc2ccccc2[nH]1)C(=O)NC1CC1 (stereo not given) -27.4%
CCN(C(=O)CCl)C1CCCCC1 -29.3%
CCOc1ccc(C(=O)CCC(=O)N(CC#N)C2CC2)cc1 -27.6%
COc1ccccc1N1CCN(Cc2ccc(Br)o2)CC1 -27.2%
COC(=O)c1c(C)cccc1NC(=O)c1nn(C)c(=O)c2ccccc12 -26.1%
O=C(c1ccccc1)N1CCN(CC(O)Cn2ccc3ccccc32)CC1 (stereo not given) -25.1%
Cc1oc2cc(OCC(=O)N[C@@H](CC(C)C)C(=O)O)ccc2c(=O)c1-c1ccc(Cl)cc1 -25.4%
COCCN1C(=O)C(=O)/C(=C(/O)c2ccc(OC)cc2C)C1c1ccncc1 (stereo not given) -25.9%
C=CCc1cc(Cl)ccc1OCCn1ccnc1 -29.1%
C/C=C/c1ccc(OCCCCn2cncn2)c(OC)c1 -25.4%
COc1ccccc1CNc1nc2ccccc2nc1NS(=O)(=O)c1cccc2nsnc12 -28.2%
CCN(c1ccc(OC)cc1)S(=O)(=O)c1nnc(NC(=O)COc2ccc(F)cc2)s1 -25.3%
CCCCN(C)c1ccc(/C=N/NC(=S)Nc2ccc(CC)cc2)cc1 -26.6%
Cc1cc(=O)n(C)c(=O)n1CCCCCN1CCCC1 -28.2%
CN(C(=O)NC1CCCCC1)[C@H]1C[C@H]2c3[nH]c4ccccc4c3CCN2C(=O)[C@H]1CO -28.3%
COc1ccc(-n2c(SCC(=O)Nc3nnc(C)s3)nc3c([nH]c4ccccc43)c2=O)cc1 -26.1%
CCCCNc1nc2c(c(=O)n(C)c(=O)n2C)n1Cc1ccccc1Cl -26.6%
Cc1cc(C(=O)OCC(=O)c2cccc([N+](=O)[O-])c2)c2ccccc2n1 -28.6%
Cc1c(C(=O)OC(C)C(C)C[N+](C)(C)C)oc2ccccc12 (stereo not given) -25.1%
O=C(N/N=C/c1ccsc1)c1cccs1 -28.6%
COc1ccc(OC)c(CN2CCN(Cc3cccc4ccccc34)CC2)c1 -26.6%
CCCN1CCC(N(C)C(=O)c2ccc(N(C)C)c(F)c2)CC1 -26.2%
Cc1noc(NS(=O)(=O)c2ccc(NC(=O)Nc3ccc(Cl)c(Cl)c3)cc2)c1C -29.6%
CC(C)NC(=O)C(C)N1CCN(S(=O)(=O)c2ccc3ccccc3c2)CC1 (stereo not given) -30.5%
CN(C)c1ccc(NC(=O)c2cc3cc(F)ccc3[nH]2)cc1 -29.7%
CN1OC[C@@H]2CN(C(=O)Cc3ccccc3)[C@H](c3ccccc3Br)C[C@@H]21 -26.9%
CN(C)CC(C)(C)CNC(=O)C1CCN(Cc2ccccc2O)CC1 -25.8%
C(=N\C(/N=C/c1ccccc1)c1ccccc1)/c1ccccc1 -26.3%
C[C@H](O)[C@@H]1C(=O)N2CCc3ccc(-c4ccccc4)cc3[C@@H]2C[C@@H]1N(C)C(=S)Nc1ccc(F)cc1 -25.6%
CCOC(=O)c1cnc(SCc2nc(-c3cccc(C)c3)oc2C)nc1N -25.9%

Activity change, inactive:
Cc1cc2n(CC(O)COc3ccc(Cl)cc3)c(=O)c3ccccc3n2n1 (stereo not given) 2.08%
COc1cccc(NC(=O)c2sc3nc(C)c(C(=O)Nc4ccc(C)cc4C)c(-c4sccc4C)c3c2N)c1 2.05%
Cc1nn(C)c(=S)n1-c1ccc(Cl)cc1 -4.45%
CCOC(=O)N1CCC(NC(=O)c2ccc3c(c2)N(Cc2ccccc2)CCS3)CC1 -4.07%
N#Cc1ccc(-c2ccc3c(c2)OCO3)nc1SCC(=O)OCc1ccccc1 -3.02%
N#Cc1cccc(NC(=O)c2cc(C3CCCCN3C(=O)c3ccccc3)on2)c1 (stereo not given) -3.31%
Cc1cc(NC(=O)Nc2ccccc2Cl)no1 -3.99%
Cc1ccccc1NC(=O)c1onc2c1CCCC2 -6.72%
Cc1ccccc1OCCCOc1ccccc1/C=N/NC(=O)c1cccc(Cl)c1 8.51%
CC(C)=C1C(=O)NN(c2ccc(C)c(Cl)c2)C1=O 6.72%
CC(C)CCNC(=O)CCn1c(=S)oc2ccccc21 -5.91%
CC1CCN(Cc2c(C(=O)N3CCc4ccccc4C3)nc3ccc(Cl)cn23)CC1 3.5%
O=C(NC(=S)Nn1cnnc1)c1ccccc1Br -1.45%
CC(C)c1ccc(Nc2ncc3c(n2)CCN(C(=O)Nc2ccc(F)c(Cl)c2)C3)cc1 0.692%
CC(=O)C1CCC2C3CCC4=CC(=O)CC[C@]4(C)[C@@]3(F)C(O)C[C@]12C (stereo not given in full) -5.1%
Cc1ccccc1OCCC(=O)Nc1cc(S(=O)(=O)N2CCCCC2)ccc1N1CCN(C)CC1 -1.6%
CCc1noc(-c2ccc(N3CCC(C)CC3)c([N+](=O)[O-])c2)n1 -1.84%
O=C(NCCN1C(=O)S/C(=C\c2ccc(OC(F)F)cc2)C1=O)C1=COCCO1 2.81%
CCSc1nc2ccccc2n1CC(=O)OC -2.92%
O=C(COC(=O)CCCOc1ccc(Cl)cc1Cl)NCc1ccccc1 -1.23%
O=C(Oc1ccc2c(=O)c(Cl)coc2c1)c1cccnc1 -4.32%
COc1cccc(NC(=O)CSC2=C(C#N)C(c3ccccc3C)C3=C(CCCC3=O)N2)c1 (stereo not given) 8.99%
CCC(C)(NC(=O)CNC(=O)c1ccccc1)C(=O)NC1CCCC1 (stereo not given) 0.79%
O=c1c2sccc2ncn1Cc1coc(-c2cccc(Cl)c2)n1 -4.58%
Cn1c(SCc2nc(-c3ccccc3)no2)nnc1-c1cccs1 -2.06%
CCc1ccc(/C=N/NC(=O)c2ccccn2)cc1 -1.57%
CCO[C@H]1OC(C(=O)O)=C[C@@H](C(C)(C)C)[C@@H]1CCCO 4.07%
